Hit rate of the full screen: of about 350,000 compounds, about 31,000 (8.9%) were called active. The inconclusive results got no clear call from the source; some entries with a clear call stand among them for comparison. Calls follow the shape of the dose curve; as a rule, active = well fitted inhibition curve with a large enough effect; inconclusive = small, poorly fitted or top-dose-only effect; inactive = no such curve, though single readings can be large or run the other way. A potency beside an inconclusive call is a rough fit, not a confirmed value.
These compounds were tested against Histone-lysine N-methyltransferase EHMT2 (Homo sapiens) (UniProt Q96KQ7) (assay: qHTS Assay for Inhibitors of Histone Lysine Methyltransferase G9a). Conditions: G9a H3K9 monomethylation, AlphaScreen, 2 h; activity, negative = inhibition: at 59 µM (top of the series) unless noted.
UniProt Q96KQ7, sequence (Q96KQ7 whole entry, looked up): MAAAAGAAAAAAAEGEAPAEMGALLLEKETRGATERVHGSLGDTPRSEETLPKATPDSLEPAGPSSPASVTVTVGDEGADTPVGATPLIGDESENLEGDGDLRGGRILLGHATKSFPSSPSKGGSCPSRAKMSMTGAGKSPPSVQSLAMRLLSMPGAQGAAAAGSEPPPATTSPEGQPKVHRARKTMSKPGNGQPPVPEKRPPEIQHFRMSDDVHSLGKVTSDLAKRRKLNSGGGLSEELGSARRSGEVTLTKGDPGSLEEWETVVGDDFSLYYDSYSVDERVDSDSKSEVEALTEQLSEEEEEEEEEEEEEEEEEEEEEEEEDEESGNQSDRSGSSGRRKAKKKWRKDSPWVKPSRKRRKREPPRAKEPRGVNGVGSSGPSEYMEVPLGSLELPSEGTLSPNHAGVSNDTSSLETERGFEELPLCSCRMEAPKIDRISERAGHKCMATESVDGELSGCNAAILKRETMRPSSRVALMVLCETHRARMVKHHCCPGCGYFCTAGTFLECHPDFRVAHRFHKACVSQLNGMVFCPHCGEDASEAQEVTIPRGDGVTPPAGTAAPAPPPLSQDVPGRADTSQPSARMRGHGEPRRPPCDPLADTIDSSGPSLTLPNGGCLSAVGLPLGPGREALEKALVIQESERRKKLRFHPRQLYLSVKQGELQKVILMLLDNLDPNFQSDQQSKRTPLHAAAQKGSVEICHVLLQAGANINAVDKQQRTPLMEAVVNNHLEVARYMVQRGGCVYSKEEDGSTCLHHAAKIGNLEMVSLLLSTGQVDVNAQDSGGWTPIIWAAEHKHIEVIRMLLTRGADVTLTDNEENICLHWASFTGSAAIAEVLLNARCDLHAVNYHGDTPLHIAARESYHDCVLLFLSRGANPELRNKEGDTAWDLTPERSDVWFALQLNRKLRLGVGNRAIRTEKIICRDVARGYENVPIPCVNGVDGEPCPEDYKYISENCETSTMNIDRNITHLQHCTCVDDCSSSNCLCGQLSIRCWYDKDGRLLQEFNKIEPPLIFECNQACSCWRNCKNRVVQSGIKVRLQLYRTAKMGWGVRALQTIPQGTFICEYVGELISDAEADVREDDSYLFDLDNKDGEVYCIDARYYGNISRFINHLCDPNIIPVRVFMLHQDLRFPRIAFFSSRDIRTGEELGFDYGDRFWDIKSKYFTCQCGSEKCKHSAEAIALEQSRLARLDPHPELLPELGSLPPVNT
Summary of the method: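 Quantitative HTS format: methyltransferase activity on a biotin-tagged H3K9 peptide is measured by AlphaScreen, using a rabbit anti-monomethyl-H3K9 antibody with streptavidin donor and anti-IgG acceptor beads. Final levels are 20 nM enzyme, 500 nM peptide, 20 uM SAM; 2 h RT.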
% is scaled to controls: 0 for no effect and ±100 for the full control effect; potency is read from the fitted curve at half-maximal effect; tags tell the direction and shape of the fitted curve.
Also: nearly all actives have a fitted effect of over 75% in size.

Compound	Potency	activity, negative = inhibition
O=C(COc1cc(F)ccc1[N+](=O)[O-])Nc1ccc2c(c1)OCO2	inconclusive: 0.562 µM [inhibitor, partial curve, poor fit]	–
COc1ccc(S(=O)(=O)NC(C)C(=O)NCc2ccc3c(c2)OCO3)cc1OC (stereo unspecified)	inactive	–
CC(=O)Oc1c(I)cc(I)cc1C(=O)Nc1ccc(Cl)cc1	inactive	–
CCN1CCCC1CNC(=O)c1ccc2c(c1)NC(=O)/C(=C\c1ccc(C)cc1)S2 (stereo unspecified)	active: 50.1 µM	–
O=C1c2ccccc2NC(c2ccc(F)cc2)N1Cc1ccco1 (stereo unspecified)	inactive	–
COC(=O)c1[nH]c2ccc(C)cc2c1NC(=O)CN1CCN(Cc2ccccc2)CC1	inconclusive: 5.62 µM [inhibitor, partial curve, poor fit]	–
CCOC(=O)C1CCCN(c2c(N3CCN(c4ccccn4)CC3)c(=O)c2=O)C1 (stereo unspecified)	inconclusive: 44.7 µM [inhibitor, partial curve]	–
CC(C#N)Sc1ccc(S(=O)(=O)N2CCCCC2)cn1 (stereo unspecified)	–	inactive: 21.3% [at 2.33 µM]
O=C(Cn1cc(C(=O)c2ccco2)c2ccccc21)Nc1ccccc1C(F)(F)F	inactive	–
O=C(N/N=C\c1ccc(Oc2ccccc2)cc1)c1csnn1	active: 0.891 µM	–
O=C(c1ccc(NC(=S)NCc2ccco2)cc1)N1CCCCC1	active: 50.1 µM	–
CC(=O)Nc1ccc2nc(-c3cccs3)[nH]c2c1	inconclusive: 50.1 µM [inhibitor, partial curve]	–
COCCn1c(=O)c(-c2cccs2)nc2cnc(N3CCOCC3)nc21	–	inactive: 6.14% [at 0.501 µM]
COc1ccc(C2=Nn3c(nnc3-c3cc(C)[nH]n3)SC2)cc1	inactive	–
COc1ccccc1NS(=O)(=O)c1ccc(N/N=C/c2ccccc2OCC(=O)O)c([N+](=O)[O-])c1	active: 20 µM	–
Cc1ccc(/C=N/NC(=O)C2CCN(Cc3ccc(F)cc3Cl)CC2)o1	inconclusive: 70.8 µM [inhibitor, single point]	–
COc1ccc(-c2onc3ccc(C(C)=O)cc23)cc1	inconclusive: 89.1 µM [inhibitor, single point]	–
O=C(CSc1nnnn1Cc1ccccc1)Nc1ccc2c(c1)OCCO2	inconclusive: 89.1 µM [inhibitor, single point]	–
COc1ccc(Br)c(C(=O)Nc2cccc(Cl)c2Cl)c1	inconclusive: 1.78 µM [inhibitor, partial curve, poor fit]	–
Cc1ccccc1NNC(=O)C(=O)NNc1ccccc1C	inconclusive: 8.91 µM [inhibitor, full curve, poor fit]	–
O=C(/C=C/c1ccc([N+](=O)[O-])cc1)NC1CC2CCC1C2 (stereo unspecified)	inactive	–
O=C(C1=C(O)C(=O)N(CCc2ccccc2)C1c1cccnc1)c1ccco1 (stereo unspecified)	inconclusive: 56.2 µM [inhibitor, partial curve, poor fit]	–
COc1cccc(C(=O)NCCS(=O)(=O)NCc2ccc(Cl)cc2)c1	–	inconclusive: -53.7% [inhibitor] [at 2.33 µM]
CCOc1ccccc1OCCCC(=O)NNC(=O)c1nn(C)c(=O)c2ccccc12	inactive	–

Compound	Potency	activity, negative = inhibition
CCOc1ccc(NCCC(=O)c2ccc3c(c2)OCO3)cc1	inconclusive: 2 µM [inhibitor, partial curve, poor fit]	–
COc1ccc(CNS(=O)(=O)c2ccc(-c3cc(C(F)(F)F)on3)s2)cc1OC	inactive	–
COC(=O)c1c(C)oc2ccc(N(C(=O)c3ccncc3)S(=O)(=O)c3ccc(Br)cc3)cc12	inactive	–
CCN1CCc2c(sc(-n3cccc3)c2C(C)NC(=O)Nc2ccc(C(=O)OC)cc2)C1 (stereo unspecified)	inconclusive: 31.6 µM [inhibitor, single point]	–
CC(=O)c1ccc(NC(=O)NC2CC(=O)N(c3ccc4c(c3)OCCO4)C2)cc1 (stereo unspecified)	inactive	–
Cc1cc(NC(=O)CSc2nc3ccccc3cc2C#N)no1	inconclusive: 79.4 µM [inhibitor, single point]	–
CN(CCc1cn[nH]c1)C(=O)CC1C(=O)NCCN1Cc1ccccc1C(F)(F)F (stereo unspecified)	active: 44.7 µM	–
Cn1c(=O)c2c(ncn2CC(=O)N/N=C/C=C/c2ccccc2)n(C)c1=O	inconclusive: 50.1 µM [inhibitor, partial curve]	–
Cc1ccc(S(=O)(=O)NCC(=O)OCC(=O)NCc2ccc3c(c2)OCO3)cc1	active: 56.2 µM	–
CN(C)C(=O)c1ccc(NC(=O)CN2CCc3cc4c(cc3C2)OCCCO4)cc1	inactive	–
CCOC(=O)C1CCN(S(=O)(=O)c2ccc(C)c(C)c2)CC1	inconclusive: 44.7 µM [inhibitor, partial curve]	–
COC(=O)c1c(NC(=O)/C=C/C(=O)O)sc(C)c1-c1ccc(C(C)C)cc1	–	inconclusive: -51.6% [inhibitor]
O=C(CSc1nc(-c2ccccc2)cs1)NCc1ccco1	inconclusive: 50.1 µM [inhibitor, partial curve, poor fit]	–
COC(=O)Nc1sc2c(c1C(=O)N1CCOCC1)CCC(C)C2 (stereo unspecified)	inconclusive: 3.98 µM [inhibitor, single point]	–
O=C1[C@H]2[C@@H](c3ccc(F)cc3)N3C(=O)N(c4ccc(Br)cc4)C(=O)[C@@]3(Cc3ccccc3)[C@H]2C(=O)N1C1CCCCC1	inactive	–
Cc1ccc(S(=O)(=O)N2CCC(C(=O)Nc3nnc(C)s3)CC2)cc1	inconclusive: 39.8 µM [inhibitor, single point]	–
Cc1cc(C)c(Cn2cnc3ccccc32)c(C)c1	active: 44.7 µM	–
Cc1ccc([N+](=O)[O-])cc1S(=O)(=O)NCCc1c(C)[nH]c2ccccc12	inconclusive: 15.8 µM [inhibitor, single point]	–
CN(C)c1ccc(/C=C/C(=O)c2ccccc2O)cc1	active: 8.91 µM	–
CCOC(=O)c1ccc(N2C(=O)c3n[nH]c(-c4ccco4)c3C2c2ccccc2OC)cc1 (stereo unspecified)	active: 12.6 µM	–
CCN(CC)c1ccc(NC(=S)NC(=O)c2ccco2)cc1	active: 28.2 µM	–
CCc1cccc(C)c1Nc1nn2c(=O)c3ccccc3nc2s1	active: 7.08 µM	–
COC(=O)Cc1ccc(NC(=S)NCC(C)C)cc1	inconclusive: 15.8 µM [inhibitor, single point]	–
Cc1ccc(C(=O)Nc2ccc3c(c2)OCO3)cc1	inconclusive: 28.2 µM [inhibitor, single point]	–

Compound	Potency	activity, negative = inhibition
C#CCN1CC(C)/C(=N/O)CC1C (stereo unspecified)	inconclusive: 79.4 µM [inhibitor, single point]	–
COc1ccc(C2CC(c3cccs3)=NN2C(=O)CSc2nc(=O)n3cc(C)ccc3n2)cc1 (stereo unspecified)	inconclusive: 1.58 µM [inhibitor, partial curve, poor fit]	–
Cc1ccc(NC(=O)C2CCCN(S(=O)(=O)c3cnc[nH]3)C2)cc1F (stereo unspecified)	inconclusive: 39.8 µM [inhibitor, single point]	–
CCCN1CCC(NC(=O)Nc2cccc3ccccc23)CC1	inconclusive: 70.8 µM [inhibitor, partial curve, poor fit]	–
COc1ccc(N2CCN(CC(=O)N3N=CCC3c3ccccc3)CC2)cc1 (stereo unspecified)	inconclusive: 20 µM [inhibitor, single point]	–
Cc1ccc(CNC(=O)c2ccc3c(c2)c(C)c(C)n3Cc2ccc(Cl)cc2)o1	inconclusive: 7.94 µM [inhibitor, partial curve, poor fit]	–
COc1cc(-c2cc(OC)c3c(C)oc(C)c3c(=O)c2)ccc1OC(=O)c1cccc(C)c1	inconclusive: 8.91 µM [inhibitor, partial curve, poor fit]	–
CC(CNC(=O)COc1ccccc1)OC(=O)Nc1ccc(Cl)c(Cl)c1 (stereo unspecified)	inactive	–
CC(=O)Nc1ccc(Nc2ncnc3ccccc23)cc1	inconclusive: 79.4 µM [inhibitor, single point]	–
CN(C)C1NC(=O)c2cc(-c3ccccc3)sc2N1 (stereo unspecified)	inconclusive: 50.1 µM [inhibitor, partial curve, poor fit]	–
CC(=O)C(Cl)C(=O)Nc1ccccc1 (stereo unspecified)	active: 44.7 µM	–
O=C(NCc1ccccc1CN1CCCC1)c1cccc(S(=O)(=O)N2CCOCC2)c1	inactive	–
CC(OC(=O)c1ccccc1NCc1ccco1)C(=O)Nc1ncc(Cl)cc1Cl (stereo unspecified)	inconclusive: 89.1 µM [inhibitor, single point]	–
COc1ccc(NC(=O)C2CCN(c3cc(C)nc4c(-c5ccc(Cl)cc5)c(C)nn34)CC2)cc1	inactive	–
O=C1c2ccccc2C(=O)N1Cc1nc2ccccc2c(=O)n1CCCN1CCOCC1	inconclusive: 35.5 µM [inhibitor, partial curve, poor fit]	–
CCc1cccc(C)c1NC(=O)CSc1nc2ccncc2[nH]1	inactive	–
O=C(c1ccc(CSc2nc3ccncc3[nH]2)cc1)N1CCN(c2cccc(Cl)c2)CC1	active: 44.7 µM	–
CCc1ccccc1NC(=O)c1cnc2n(c1=O)CCS2	inconclusive: 79.4 µM [inhibitor, single point]	–
Cc1ccc(C2C=C(c3ccccc3)Nc3nc(NS(C)(=O)=O)nn32)cc1 (stereo unspecified)	active: 20 µM	–
Cc1cc(C(=O)NCc2nc(-c3ccccc3)no2)ccc1[N+](=O)[O-]	inconclusive: 89.1 µM [inhibitor, partial curve, poor fit]	–
Cc1ccc(-c2nnn(CC(=O)Nc3ccc4nn(-c5ccccc5)nc4c3)n2)o1	inconclusive: 70.8 µM [inhibitor, single point]	–
CCCc1cc(=O)[nH]c(SCc2nc(-c3ccc(OCC)cc3)no2)n1	inactive	–
S=C(Nc1ccc(Cl)cc1Cl)Nn1cnnc1	inconclusive: 2 µM [inhibitor, full curve, poor fit]	–

From PubChem BioAssay AID504332 (National Center for Advancing Translational Sciences (NCATS), 2011)
